Self-cleavage data for 34 variants are collected here from the RNAGym collection of RNA variant scans (doi:10.1093/nar/gkz1192).

The source gives no read counts; variants with many changes may rest on few reads.

The labels stand for the following.
B1: CPEB3 Ribozyme (parent)
chain: UAACAGGGGGCCACAGCAGAAGCGUUCACGUCGCAGCCCCUGUCAGAUUCUGGUGAAUCUGCGAAUUCUGCUGUAUAUCUC

In the data set the parent is B1. Put plainly: self-cleavage, relative activity (ratio to wild type); higher = more cleavage; in vitro, sequencing. In outline: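 After error-prone PCR and barcoding, CPEB3 ribozyme mutant libraries were transcribed with T7 RNA polymerase at 37°C for 5 hours, then given 15 min with DNase I before an EDTA stop, and they cleaved during both steps. Reverse transcription with template switching preceded Illumina sequencing. Relative activity divides a variant's cleaved/total read fraction by the unmutated ribozyme's. At least 5 reads were required per variant, and three batches were averaged.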
Turning to UGACAGGGGGCCACAGCAGAAGCGUUCAAGUCGCAGCCCCUGUCAGAUUCUGGUGAAUCUGCGAAUUCUGCUGCAUAUCUC, the self-cleavage worked out at 0.59.

As for UGACAGAGGGCCACAGCAGAAGCGUUCACGUCGCAGCCCCUGUCGGAUUCUGGUGAGCCUGCGAAUUCUGCUGUAUAUCUC, the self-cleavage worked out at 0.19. Consider UGACAGGGGGCCACAGCAAAAGCCUUCACGUCGCAGCCCCUGUCAGACUCUGGUGUAUCUGCGAAUUCUGCUGUAUAUCUC, for which the self-cleavage was 0.06. As to UGACAGGGGACCACAGCAGAAGCGUCCACGACGCAGCCCCUGUCAGAUUCUGGUGAGUCUGCGAAUUCUGCUGUAUAUCUC, the self-cleavage was found to be 0.02. For the variant UGACAGGGGGCCACAGCAGAAGCGUUCACGUCACAGCCCCUGUCAGAUUCUGGUGAAUCUGCGAAUCCUGCUGUAUAUCUC, the self-cleavage amounted to 0.08. For UGACAGGGGGCCACAGCAGAAGCGUUCACGUCGCAGCCCGUGACAGAUUCUGGUGAAUCUGCGAAUUCAGCUGUGUAUCUC, the self-cleavage was found to be 0.17. UGACAGGGGGCCACAGCAGAAGCGUUCACGUCGCAGCCUCUGUCGGAUUCUGGUGGAUCUGCGAAUUCAGCUGUUUAUCUC: the self-cleavage stood at 0.15.

Take UGACAGGGGGCCACAGCAGAAGCGUUCACGUCGCAGCCCCUGUGAGAUUCUGGUGAGUCUGCGAAUUCCGCUGUACAUCUC: the self-cleavage amounted to 0. Turning to UGACAGGAGGCCACAGCAGAAGCGUUCACGUCGCAGCCCCUGUCGGAUUCAGGUGAGUCUGCGAAUUCUGCUGUAUAUCUC, the self-cleavage is 0.23. In the case of UGACACGGGGCCACAGCAGAAGCGUUCACGUCGCAGCCCCCGUCAGGUUCUGGUGAAUCUGCGGAUCCUGCUGUAUAACUC, the self-cleavage was 0.36. In the case of UGACAGGAGGCCACGGCAGAAGCGCUCACGUCGCAGCCCCUGUCAGAUUCUGGUGAAUCUGCGAAUUCUGCUGAAUAUCUC, the self-cleavage is 0.02. Under UGACAGGGGACCACAGCAGAAGCGUUCACGUCGCAGCCCCUGUCAGUUUCUGGUGAAUCUGCGUAUUCUGCUGUAUAUCUC stands 0.14. Under UGACAGAGGGCCACAGCAGAAGCGUUCGCGUCGCAGCCCCUGUCAGAUUCUGGUGAAUCUGCGAAUUCUGCUGUAUAUCUC stands 0.05; under UGACAGCGGGCCACAGCAGAAGCGUUCACGUCGCAGCCCCUGUCAGAUUCUGGUGAAUCUGCGAAUUAUGCUGUAUAUCUC, 0.07; under UGACAGGGGGCCACAGCAGAAGCGUUCACGUCGCAACCCCUGUCAGAUUCUGGUGAACCUGCGAAUUCUGCUGUAUAUCUC, 0.07. With UGACAGGGGGCCACAGCAGAAGCGUUCACGUUGCAGCCCCUGUCGGAUUCCGGUGAAUCUGCGAAUUCUGCUGUAUAUCUC the figure was 0.03; with UGACAGUGGGCCACAGUAGAAGCGUCCACGUCGCAGCCCCUGCCAGAUUCUGGUGAAUCUGCGAAUACUGCUGUAUAUCUC, 0.22. Regarding UGACAGGGCGCCACUGCAGAGGCGUUCACGUCGCAGCCUCUGUCAGACCCUGGUGAAUCUGCGAAUUCUGCUGUAUAUCUC, the self-cleavage worked out at 0.06.

In the case of UGACAGGGGGCCACAGCAGAAGCGUUCACGUCGCAGCCCCUGUCAGAUUCUGGUGAAUCUGCUAAUUCUGCUGCAUAUCUC, the self-cleavage was determined as 1.15.

Regarding UGACAGGGGGCCACAGCAGAAGCUUUCACGUCGCAGCCCCUGUCAGAUUCUGGUGGAACUGCGAAUUCUGCUGUAUAUCUC, the self-cleavage came out at 0.07. For UGACAGGGAGCCACAGCAGAAGCGUUCUCGUCGCAGCCCCUGUCAGAUUCUGGUGAAUCUGCGAAUCUAGAUGUAUAUCUC, the self-cleavage came out at 0.03.

Turning to UGACAGGGUGCCACAGCAGAAGCGUUCACGUCGCAGCCCCUGUCAGAUUCUGGUGAAUCUGCGAAUUCUGCUGUAUGUCUC, the self-cleavage came out at 0.1.

Take UGACAGGGUGUCACAGCAGAAGCGUUCACGACGCAGCCCCUGUCAGAUACUGGUGAAUCCGCGAACUCUGCUGUAUAUCUC: the self-cleavage stood at 0.13. For the variant UGACAGGGAGCCACAGCAGAAGCGUUCACGUCGCAGCCCCUGUCAGAUUCUGGUGAAUCUGCGACUUCUGCUGUAUACCUC, the self-cleavage stood at 0.05. Under UGACAGGGGGCCACAGCAGAAGCGUUCACGUCACAGCCCCUGUCAGAUUCCGGUGAAUCUGCGAAUUCUGCAGUAUAUCUC stands 0.06; under UGACAAGGGGCCACAGCAGAAGCGUUCACGUCGCAGCCCCCGUCAGAUUCUGGUGAAUCUGCGUAUUCUGCUGUAUAUCUC, 0.35. On to UGACAGGGAGCCACUGCGGAAGCGUUCACGUCGCAGCCCCUGUCGGAUUCUGGUGAAUCUGCGAAUUCUGCUGUAUAUCUC, for which the self-cleavage worked out at 0.25.

UGACAGGGGGCCACAGCAGAAGCGUUCACGUUGCAGCCCCUGUCAGAUUCUGGUGAAUCUGCAAAUUCUGCCGUAUAUCUC: the self-cleavage was 0.31. In the case of UGACAGGAGGCCACAGCAGAAGCGUUCACGUCGCAGCCCCUGUCAGAUUCGGAUGAAUCUGCUAAUUCUGCUGUACAUCUC, the self-cleavage turned out to be 0.13. As for UGACAGGGGGCCACAGCAGAAGCGUUCACGUCGUAGCCCCUGUCAGUUUCUGAUGAAUCUGCGAAUACUGCUGCAUAUCUC, the self-cleavage is 0.04.

As to UGACAAGGGGCCACAGCAGAAGCGCUCACGACGCAGCCCCCGUCAGAUUCUGGUGAAUCUGCGAAUUCUGCUGUAUAUCUC, the self-cleavage came to 0.07. Turning to UGACAGGGAGCCACUGCAGAAGCGUUCGCGUCGCAGCCCCUGUCAGAUUCUGGUGAAUCUGCGAAUCCAGCUGUAUAUCUC, the self-cleavage came to 0.06. UGACAGGUGGCAACAGCAGAAGUGUUCUCCUCGCAGCCCCUGUCAGAUUCUGGUGAAUCUGCGAAUUCUGCGGUAUAUCUC: the self-cleavage was determined as 0.03. Under UGACAGGGGGCCACAGCAGAAGCGUUCACGUCGCAGCUCCUGUCAGAUUCUGGUGAAACUGCGAAUUCUGCUGUGUAUCUC stands 0.04.
